{"source": "the antibiotic and cytotoxicity screens of Wong et al. (2023)", "note": "The list shows a part of the results.", "data": [{"tested_on": "HSkMC (human skeletal muscle cells)", "test": "cytotoxicity call (relative viability < 0.9)", "conditions": "10 µM", "values": [{"smiles": "C[C@@H]1CN([C@H](C)CO)C(=O)c2cc(NC(=O)Nc3ccc4c(c3)OCO4)ccc2O[C@@H](C)CCCCO[C@@H]1CN(C)Cc1ccc2c(c1)OCO2", "cytotoxicity call": "inactive"}, {"smiles": "COc1ccc(S(=O)(=O)N(C)C[C@@H]2OCCCC[C@H](C)Oc3ccc(NS(C)(=O)=O)cc3C(=O)N([C@H](C)CO)C[C@H]2C)cc1", "cytotoxicity call": "inactive"}, {"smiles": "C[C@@H]1CN([C@@H](C)CO)C(=O)Cc2cc(NC(=O)CCN3CCOCC3)ccc2O[C@@H]1CN(C)C(=O)Nc1ccccc1", "cytotoxicity call": "inactive"}, {"smiles": "COC(=O)[C@@H]1C(=O)NC[C@H]1c1cccnc1", "cytotoxicity call": "inactive"}, {"smiles": "Cl.Cl.O=C1c2c(O)ccc(O)c2C(=O)c2c(NCCNCCO)ccc(NCCNCCO)c21", "cytotoxicity call": "active"}, {"smiles": "O=C(C[C@H]1CC[C@H]2[C@@H](COC[C@@H](O)CN2C(=O)Nc2cccc(Cl)c2)O1)NCCCN1CCOCC1", "cytotoxicity call": "inactive"}, {"smiles": "CN1CCN(C(=O)C[C@H]2CC[C@@H]3[C@H](COc4ccc(NC(=O)C5CCOCC5)cc4C(=O)N3C)O2)CC1", "cytotoxicity call": "inactive"}, {"smiles": "COc1ccc(S(=O)(=O)Nc2ccc3c(c2)C(=O)N([C@@H](C)CO)C[C@H](C)[C@@H](CN(C)S(=O)(=O)c2ccccc2)O3)cc1", "cytotoxicity call": "inactive"}, {"smiles": "CS(=O)(=O)N1CC[C@@H]2OCCN(C(=O)c3cccnc3)[C@@H]2C1", "cytotoxicity call": "inactive"}, {"smiles": "COc1ccc(-c2cnc3c(c2)C(=O)N([C@H](C)CO)C[C@@H](C)[C@@H](CN(C)C(=O)Cc2ccncc2)O3)cc1", "cytotoxicity call": "inactive"}, {"smiles": "C[C@H](CO)N1C[C@H](C)[C@@H](CN(C)C(=O)C2CCCCC2)OCCCC[C@H](C)Oc2ccc(NC(=O)Nc3cccc4ccccc34)cc2C1=O", "cytotoxicity call": "inactive"}, {"smiles": "C[C@@H]1CCCCO[C@@H](CN(C)C(=O)c2ccccc2)[C@H](C)CN([C@H](C)CO)C(=O)c2cc(NC(=O)c3ccccc3)ccc2O1", "cytotoxicity call": "inactive"}, {"smiles": "CO[C@H](CN(C)S(=O)(=O)c1cccc(Cl)c1)[C@H](C)CN([C@@H](C)CO)S(=O)(=O)c1cccc(Cl)c1", "cytotoxicity call": "inactive"}, {"smiles": "O=C(C[C@H]1C=C[C@@H](NC(=O)c2ccc(F)cc2)[C@@H](CO)O1)NCc1ccncn1", "cytotoxicity call": "inactive"}, {"smiles": "Cc1ccc(S(=O)(=O)N[C@@H](Cc2ccccc2)C(=O)NCCCn2cc(-c3ccc(C(=O)NO)s3)nn2)cc1", "cytotoxicity call": "inactive"}, {"smiles": "C[C@H]1CCCCO[C@H](CN(C)Cc2ccc(C(F)(F)F)cc2)[C@@H](C)CN([C@@H](C)CO)C(=O)c2cc(NC(=O)Cc3ccccc3)ccc2O1", "cytotoxicity call": "inactive"}, {"smiles": "C[C@@H]1CCCCO[C@H](CN(C)CC2CC2)[C@@H](C)CN([C@H](C)CO)C(=O)c2cc(NC(=O)CCC(F)(F)F)ccc2O1", "cytotoxicity call": "inactive"}, {"smiles": "Nc1nc2ccc(OC(F)(F)F)cc2s1", "cytotoxicity call": "inactive"}, {"smiles": "CS(=O)(=O)CC(=O)N1C[C@@H]2CN(Cc3ccoc3)CCO[C@@H]2C1", "cytotoxicity call": "inactive"}, {"smiles": "COCC#Cc1ccc2c(c1)O[C@@H](CN(C)C(=O)C1CCCCC1)[C@@H](C)CN([C@@H](C)CO)S2(=O)=O", "cytotoxicity call": "inactive"}, {"smiles": "CC(=O)N1CCN(c2ccnc3c2c(=O)n(CC(=O)NC(C)(C)C)c(=O)n3C)CC1", "cytotoxicity call": "inactive"}, {"smiles": "C[C@H]1CN([C@@H](C)CO)C(=O)Cc2cc(NS(=O)(=O)c3ccc(F)cc3)ccc2O[C@@H]1CN(C)CC1CC1", "cytotoxicity call": "inactive"}, {"smiles": "COc1ccc(NC(=O)N(C)C[C@H]2Oc3c(NC(=O)C4CCOCC4)cccc3C(=O)N([C@@H](C)CO)C[C@@H]2C)cc1", "cytotoxicity call": "inactive"}, {"smiles": "C[C@H](CO)N1C[C@H](C)[C@@H](CN(C)S(=O)(=O)c2ccccc2)OCCCC[C@H](C)Oc2ccc(NC(=O)Nc3ccc(F)cc3)cc2C1=O", "cytotoxicity call": "inactive"}, {"smiles": "C[C@@H]1CN([C@H](C)CO)C(=O)Cc2cc(NS(=O)(=O)c3ccccc3)ccc2O[C@@H]1CN(C)S(=O)(=O)c1ccc(F)cc1", "cytotoxicity call": "inactive"}, {"smiles": "C[C@@H]1CCCCO[C@@H](CN(C)Cc2ccc(C(F)(F)F)cc2)[C@@H](C)CN([C@@H](C)CO)C(=O)c2cc(NC(=O)Cc3ccccc3)ccc2O1", "cytotoxicity call": "inactive"}, {"smiles": "CC(C)NC(=O)Nc1ccc2c(c1)C(=O)N([C@H](C)CO)C[C@H](C)[C@@H](CN(C)S(=O)(=O)c1ccc(Cl)cc1)O2", "cytotoxicity call": "inactive"}, {"smiles": "C[C@H](CO)N1C[C@H](C)[C@H](CN(C)C(=O)c2cc(Cl)cc(Cl)c2)OCc2ccccc2-c2ccccc2C1=O", "cytotoxicity call": "inactive"}, {"smiles": "C[C@H](CO)N1C[C@H](C)[C@H](CN(C)C(=O)Nc2ccc(F)cc2)Oc2ccc(NC(=O)Nc3cccc4ccccc34)cc2C1=O", "cytotoxicity call": "inactive"}, {"smiles": "NCC[C@H]1CC[C@@H](NC(=O)C2CCCCC2)[C@@H](CO)O1", "cytotoxicity call": "inactive"}]}]}
